According to the antibiotic and cytotoxicity screens of Wong et al. (2023):
The other results are listed elsewhere or left out.

tested on: HSkMC (human skeletal muscle cells); test: cytotoxicity call (relative viability < 0.9); settings: 10 µM

Row | SMILES | cytotoxicity call
1 | C[C@@H]1CN([C@H](C)CO)C(=O)c2cc(NC(=O)Nc3cccc4ccccc34)ccc2O[C@@H](C)CCCCO[C@H]1CN(C)C(=O)Nc1ccc(C(F)(F)F)cc1 | inactive
2 | C[C@H](CO)N1C[C@H](C)[C@@H](CN(C)S(=O)(=O)c2cccs2)Oc2ccc(NC(=O)CCCN(C)C)cc2C1=O | inactive
3 | CN1CCN(C(=O)C[C@@H]2CC[C@@H]3[C@H](COc4ccc(NC(=O)c5ccc(F)c(F)c5)cc4C(=O)N3C)O2)CC1 | inactive
4 | Cc1noc(C)c1NC(=O)N(C)C[C@@H]1Oc2ccc(NC(=O)CCCN(C)C)cc2C(=O)N([C@H](C)CO)C[C@H]1C | inactive
5 | C[C@@H]1CCCCO[C@@H](CN(C)C(=O)Nc2ccc(C(F)(F)F)cc2)[C@H](C)CN([C@H](C)CO)C(=O)c2cc(NS(=O)(=O)c3cn(C)cn3)ccc2O1 | inactive
6 | Cc1ccc(S(=O)(=O)N(C)C[C@@H]2OCCCC[C@H](C)Oc3ccc(NC(=O)Nc4c(C)noc4C)cc3C(=O)N([C@H](C)CO)C[C@H]2C)cc1 | inactive
7 | CCCNC(=O)N(C)C[C@H]1Oc2cc(C#Cc3ccccn3)ccc2S(=O)(=O)N([C@@H](C)CO)C[C@H]1C | inactive
8 | O=C1c2c(O)cccc2C(C2OC(CO)C(O)C(O)C2O)c2cc(CO)cc(O)c21 (stereo not drawn) | inactive
9 | CN1[C@@H]2Cn3c(ccc(-c4ccccc4)c3=O)[C@H]1[C@@H](C(=O)NCCCN1CCOCC1)[C@@H]2CO | inactive
10 | Cc1ccc(S(=O)(=O)N(C)C[C@H]2Oc3ccc(NC(=O)NC(C)C)cc3CC(=O)N([C@H](C)CO)C[C@H]2C)cc1 | inactive
11 | C[C@H](CO)N1C[C@H](C)[C@H](CN(C)S(=O)(=O)c2ccc(F)cc2)Oc2c(NC(=O)C3CC3)cccc2C1=O | inactive
12 | COc1ccc(CN(C)C[C@H]2OCCCC[C@H](C)Oc3ccc(NC(=O)CCC(F)(F)F)cc3C(=O)N([C@@H](C)CO)C[C@@H]2C)cc1 | inactive
13 | C[C@@H]1CN([C@@H](C)CO)C(=O)c2cc(NS(=O)(=O)c3ccc(F)cc3)ccc2O[C@@H](C)CCCCO[C@@H]1CN(C)CC1CCCCC1 | inactive
14 | NCc1ccccc1-n1cncn1 | inactive
15 | Cc1noc(C)c1S(=O)(=O)Nc1ccc2c(c1)CC(=O)N([C@@H](C)CO)C[C@@H](C)[C@H](CN(C)C(=O)Nc1ccccc1)O2 | inactive
16 | C[C@@H]1CN([C@@H](C)CO)S(=O)(=O)c2ccc(C3=CCCC3)cc2O[C@@H]1CN(C)S(=O)(=O)c1ccc(F)cc1 | inactive
17 | CC(C)[C@@H](O)C[C@@H](C)O[C@@H]1O[C@H](CO[C@@H]2OC[C@](O)(CO)[C@H]2O)[C@@H](O)[C@H](O)[C@H]1O | inactive
18 | O=c1cc(-c2ccccc2)oc2cc(O)ccc12 | inactive
19 | CN(C)C(=O)C[C@H]1CC[C@@H](NC(=O)C2CC2)[C@H](CO)O1 | inactive
20 | CCOC(=O)OC[C@@H]1[C@@H]2NC(=O)N(C)[C@@]1(COC(=O)NCCCCCC(=O)NO)Oc1ccccc12 | inactive
21 | C[C@@H]1CN([C@@H](C)CO)C(=O)c2cc(C#CCc3ccccc3)cnc2O[C@@H]1CN(C)C(=O)C1CCOCC1 | inactive
22 | Cc1cccc(C(=O)NN)c1 | inactive
23 | C[C@H](CO)N1C[C@H](C)[C@@H](CN(C)Cc2ccccn2)Oc2ncc(C#Cc3cccc(F)c3)cc2C1=O | inactive
24 | C[C@H]1CN([C@@H](C)CO)C(=O)Cc2cc(NC(=O)Nc3ccc(C(F)(F)F)cc3)ccc2O[C@H]1CN(C)Cc1ccccc1 | active
25 | C[C@H](CO)N1C[C@H](C)[C@H](CN(C)Cc2ccc3c(c2)OCO3)OCCCC[C@H](C)Oc2ccc(NC(=O)Nc3ccc(F)cc3)cc2C1=O | inactive
26 | C[C@@H]1CN([C@H](C)CO)C(=O)c2cc(NC(=O)Nc3ccc(F)cc3)ccc2O[C@H]1CN(C)Cc1ccc(-c2ccccc2)cc1 | active
27 | O=C(O)[C@H]1O[C@@H](Oc2c(-c3ccc(O)cc3)oc3cc(O)cc(O)c3c2=O)[C@H](O)[C@@H](O)[C@@H]1O | inactive
28 | C[C@@H]1CN([C@@H](C)CO)C(=O)c2cccc(NC(=O)CCCCCC(=O)Nc3ccccc3N)c2O[C@H]1CN(C)Cc1ccc(C(F)(F)F)cc1 | inactive
